# Some of the results follow. These are noisy estimates, calculated here from bound and input reads.
# Biological target: T1, Pho4 (S. cerevisiae) (UniProt P07270)
# T1 sequence: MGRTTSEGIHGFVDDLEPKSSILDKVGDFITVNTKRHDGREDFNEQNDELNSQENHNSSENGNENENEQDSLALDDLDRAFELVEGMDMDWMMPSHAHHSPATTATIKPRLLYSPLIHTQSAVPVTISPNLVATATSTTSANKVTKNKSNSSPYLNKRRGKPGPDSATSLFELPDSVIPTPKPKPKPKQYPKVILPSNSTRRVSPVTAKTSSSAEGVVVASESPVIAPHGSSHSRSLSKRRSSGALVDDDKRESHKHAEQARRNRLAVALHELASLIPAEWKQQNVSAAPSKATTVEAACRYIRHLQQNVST
# Experiment: relative binding free energy (BET-seq); higher = weaker binding
# Conditions: reference: library average
row,Sequence,relative binding free energy
1,ACGTACACGTGGTGAG,0.1 kcal/mol
2,AGACACACGTGTGGGT,0.16 kcal/mol
3,TCTTACACGTGTAGTG,0.09 kcal/mol
4,GAACGCACGTGTTTTG,0.06 kcal/mol
5,AGAGGCACGTGCGGTG,-0.1 kcal/mol
6,TAGTACACGTGATGGG,0.13 kcal/mol
7,CTGGGCACGTGCTTGG,-0.07 kcal/mol
8,TTTGTCACGTGGAGGT,0.12 kcal/mol
9,TCAAGCACGTGGGGGC,-0.19 kcal/mol
10,ATGGGCACGTGCGTCG,-0.28 kcal/mol
11,GGTGCCACGTGGTATA,-0.13 kcal/mol
12,GCTTGCACGTGTAAGT,0.13 kcal/mol
13,CGAGGCACGTGGTGCT,-0.25 kcal/mol
14,TGACTCACGTGCGGGT,0.19 kcal/mol
15,CGTGGCACGTGCGGGG,-0.11 kcal/mol
16,TATGTCACGTGCGTAA,0.03 kcal/mol
17,GTTAACACGTGGTCGG,0.03 kcal/mol
18,GGAGTCACGTGCTTGG,0.24 kcal/mol
19,TGGGTCACGTGTCTCG,0.17 kcal/mol
20,ATTCGCACGTGTTATG,-0.14 kcal/mol
21,ACTGGCACGTGATTTG,0.04 kcal/mol
22,AGGGGCACGTGAGCAG,0.11 kcal/mol
23,TGGATCACGTGGCGGT,0.04 kcal/mol

row,Sequence,relative binding free energy
1,TGTTCCACGTGAGAGG,0.09 kcal/mol
2,TGCGTCACGTGAGGGG,0.31 kcal/mol
3,GTCTTCACGTGAGTGT,0.38 kcal/mol
4,GTGTACACGTGACGGA,0.18 kcal/mol
5,GGGTACACGTGGTGGA,-0.01 kcal/mol
6,TGTTGCACGTGTGTTA,0.02 kcal/mol
7,TCAGGCACGTGGGACT,-0.09 kcal/mol
8,TTTAGCACGTGGTATC,-0.09 kcal/mol
9,GGCATCACGTGATGTG,0.16 kcal/mol
10,TCGTCCACGTGGTTGG,0 kcal/mol
11,GCTTGCACGTGCTGGG,0.07 kcal/mol
12,GCGGTCACGTGGTGAT,0.04 kcal/mol
13,TTTAGCACGTGGTTAG,-0.12 kcal/mol
14,TAGTTCACGTGTTTTC,0.23 kcal/mol
15,ATCTTCACGTGGGGGG,0.33 kcal/mol
16,TATGCCACGTGTTTAT,-0.07 kcal/mol
17,TGGTGCACGTGGGGTG,-0.1 kcal/mol
18,AGCGGCACGTGATAGT,-0.01 kcal/mol
19,TCGGACACGTGTATGT,0.14 kcal/mol
20,CAATGCACGTGGTAGG,-0.06 kcal/mol
21,GTGGACACGTGGAAAG,0.28 kcal/mol
22,GTGGTCACGTGTTTTG,0.25 kcal/mol
23,GTGGACACGTGCGAGT,-0.12 kcal/mol

row,Sequence,relative binding free energy
1,GTATACACGTGGACGG,0.09 kcal/mol
2,TGTGACACGTGGACTG,-0.07 kcal/mol
3,AGTTCCACGTGGGCGT,-0.11 kcal/mol
4,AGCTACACGTGGGTGG,-0.18 kcal/mol
5,TGTGTCACGTGCCGTT,0.14 kcal/mol
6,GTTGTCACGTGCATGT,0.19 kcal/mol
7,TGATGCACGTGGCATT,-0.08 kcal/mol
8,TTTGGCACGTGCTATT,-0.13 kcal/mol
9,GTTTGCACGTGGATAT,-0.01 kcal/mol
10,GTCAGCACGTGGGTGG,-0.19 kcal/mol
11,GTGAGCACGTGCTGGT,-0.03 kcal/mol
12,TATAACACGTGGTAGG,-0.05 kcal/mol
13,TTATACACGTGTCGTA,0.09 kcal/mol
14,TGCGACACGTGATGGT,0.17 kcal/mol
15,AGTGTCACGTGGGCGG,-0.12 kcal/mol
16,TGGCTCACGTGTGTCT,0.16 kcal/mol
17,AAGGGCACGTGAGGCA,0.03 kcal/mol
18,TGTAACACGTGTGGTA,-0.04 kcal/mol
19,AAAGTCACGTGATTAT,0.18 kcal/mol
20,ATAATCACGTGGAAGG,0.12 kcal/mol
21,GGTGTCACGTGCGGGG,0.13 kcal/mol
22,GGTTTCACGTGATTGT,0.4 kcal/mol
23,TTGGGCACGTGACATT,-0.04 kcal/mol

row,Sequence,relative binding free energy
1,CTTTACACGTGTAGTG,0.11 kcal/mol
2,TTGCACACGTGTAATG,0.17 kcal/mol
3,GTTCGCACGTGTTATG,0.02 kcal/mol
4,TCGTACACGTGGTATT,-0.12 kcal/mol
5,GCTAACACGTGTTTGT,0.06 kcal/mol
6,TGTTGCACGTGAGATG,0.27 kcal/mol
7,CGTTGCACGTGGTAAG,0.03 kcal/mol
8,TATATCACGTGGGTGC,0.07 kcal/mol
9,TCTATCACGTGCGTGG,0.13 kcal/mol
10,TACGGCACGTGATAGG,0.01 kcal/mol
11,TGTTACACGTGGGTAT,0 kcal/mol
12,TAGGTCACGTGTTGTT,0.19 kcal/mol
13,TTAGCCACGTGTATTG,0.01 kcal/mol
14,TGTTACACGTGGATCA,0.23 kcal/mol
15,CATGGCACGTGTGTGA,-0.02 kcal/mol
16,TGATGCACGTGGTACG,-0.14 kcal/mol
17,TGGTGCACGTGAGAGT,0.27 kcal/mol
18,GGGGACACGTGCCGGG,-0.05 kcal/mol
19,GATATCACGTGGCGCG,0.28 kcal/mol
20,TATGACACGTGATGTT,0.16 kcal/mol
21,GTCAGCACGTGAGTGT,0.18 kcal/mol
22,CGATGCACGTGTGGCT,-0.02 kcal/mol
23,TGTATCACGTGGAATT,0.17 kcal/mol

row,Sequence,relative binding free energy
1,GGAGACACGTGATAGG,0.03 kcal/mol
2,TAGGACACGTGGCGTT,0.02 kcal/mol
3,TCATGCACGTGAGAGT,0.34 kcal/mol
4,GTATTCACGTGTATGA,0.13 kcal/mol
5,CTGGGCACGTGTGCAA,-0.06 kcal/mol
6,TATAGCACGTGGTAGT,-0.18 kcal/mol
7,ATTTACACGTGGAGAA,0.41 kcal/mol
8,GTCATCACGTGGTGGT,0.05 kcal/mol
9,TTGTTCACGTGTTCGG,0.22 kcal/mol
10,GGGACCACGTGTTGGT,0.03 kcal/mol
11,GTTCGCACGTGAGGGG,0.23 kcal/mol
12,TGATACACGTGGGTCT,-0.08 kcal/mol
13,TATAACACGTGGCTGG,-0.06 kcal/mol
14,ACGGGCACGTGGTGTT,-0.16 kcal/mol
15,AGGGGCACGTGCCTTG,-0.29 kcal/mol
16,TATTGCACGTGAGATA,0.27 kcal/mol
17,GTATTCACGTGCGTTA,0.21 kcal/mol
18,CGTTTCACGTGTCGTG,0.22 kcal/mol
19,GCATTCACGTGAATGT,0.32 kcal/mol
20,GGTAACACGTGATGCG,0.14 kcal/mol
21,TTTGACACGTGGGTAA,-0.15 kcal/mol
22,TGGGGCACGTGCTGAA,-0.13 kcal/mol
23,GGTGCCACGTGGTCTG,-0.24 kcal/mol

# From the BET-seq Pho4 binding data (Le et al. 2018)
